These are yes or no findings as the source states them, for the method shown. For some assays here: Binding seen in cells or lysates may run through a third protein. Some entries that bind do so weakly or less than the wild type.
T1: biotin-labelled D5SD peptide (human)
T1 sequence (peptide, biotin (position not stated)): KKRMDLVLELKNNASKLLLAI

Amino acid sequences for entries named in this document (tags omitted). A change or cut given only in a name is not applied to a line headed by its entry.
UniProt Q14643: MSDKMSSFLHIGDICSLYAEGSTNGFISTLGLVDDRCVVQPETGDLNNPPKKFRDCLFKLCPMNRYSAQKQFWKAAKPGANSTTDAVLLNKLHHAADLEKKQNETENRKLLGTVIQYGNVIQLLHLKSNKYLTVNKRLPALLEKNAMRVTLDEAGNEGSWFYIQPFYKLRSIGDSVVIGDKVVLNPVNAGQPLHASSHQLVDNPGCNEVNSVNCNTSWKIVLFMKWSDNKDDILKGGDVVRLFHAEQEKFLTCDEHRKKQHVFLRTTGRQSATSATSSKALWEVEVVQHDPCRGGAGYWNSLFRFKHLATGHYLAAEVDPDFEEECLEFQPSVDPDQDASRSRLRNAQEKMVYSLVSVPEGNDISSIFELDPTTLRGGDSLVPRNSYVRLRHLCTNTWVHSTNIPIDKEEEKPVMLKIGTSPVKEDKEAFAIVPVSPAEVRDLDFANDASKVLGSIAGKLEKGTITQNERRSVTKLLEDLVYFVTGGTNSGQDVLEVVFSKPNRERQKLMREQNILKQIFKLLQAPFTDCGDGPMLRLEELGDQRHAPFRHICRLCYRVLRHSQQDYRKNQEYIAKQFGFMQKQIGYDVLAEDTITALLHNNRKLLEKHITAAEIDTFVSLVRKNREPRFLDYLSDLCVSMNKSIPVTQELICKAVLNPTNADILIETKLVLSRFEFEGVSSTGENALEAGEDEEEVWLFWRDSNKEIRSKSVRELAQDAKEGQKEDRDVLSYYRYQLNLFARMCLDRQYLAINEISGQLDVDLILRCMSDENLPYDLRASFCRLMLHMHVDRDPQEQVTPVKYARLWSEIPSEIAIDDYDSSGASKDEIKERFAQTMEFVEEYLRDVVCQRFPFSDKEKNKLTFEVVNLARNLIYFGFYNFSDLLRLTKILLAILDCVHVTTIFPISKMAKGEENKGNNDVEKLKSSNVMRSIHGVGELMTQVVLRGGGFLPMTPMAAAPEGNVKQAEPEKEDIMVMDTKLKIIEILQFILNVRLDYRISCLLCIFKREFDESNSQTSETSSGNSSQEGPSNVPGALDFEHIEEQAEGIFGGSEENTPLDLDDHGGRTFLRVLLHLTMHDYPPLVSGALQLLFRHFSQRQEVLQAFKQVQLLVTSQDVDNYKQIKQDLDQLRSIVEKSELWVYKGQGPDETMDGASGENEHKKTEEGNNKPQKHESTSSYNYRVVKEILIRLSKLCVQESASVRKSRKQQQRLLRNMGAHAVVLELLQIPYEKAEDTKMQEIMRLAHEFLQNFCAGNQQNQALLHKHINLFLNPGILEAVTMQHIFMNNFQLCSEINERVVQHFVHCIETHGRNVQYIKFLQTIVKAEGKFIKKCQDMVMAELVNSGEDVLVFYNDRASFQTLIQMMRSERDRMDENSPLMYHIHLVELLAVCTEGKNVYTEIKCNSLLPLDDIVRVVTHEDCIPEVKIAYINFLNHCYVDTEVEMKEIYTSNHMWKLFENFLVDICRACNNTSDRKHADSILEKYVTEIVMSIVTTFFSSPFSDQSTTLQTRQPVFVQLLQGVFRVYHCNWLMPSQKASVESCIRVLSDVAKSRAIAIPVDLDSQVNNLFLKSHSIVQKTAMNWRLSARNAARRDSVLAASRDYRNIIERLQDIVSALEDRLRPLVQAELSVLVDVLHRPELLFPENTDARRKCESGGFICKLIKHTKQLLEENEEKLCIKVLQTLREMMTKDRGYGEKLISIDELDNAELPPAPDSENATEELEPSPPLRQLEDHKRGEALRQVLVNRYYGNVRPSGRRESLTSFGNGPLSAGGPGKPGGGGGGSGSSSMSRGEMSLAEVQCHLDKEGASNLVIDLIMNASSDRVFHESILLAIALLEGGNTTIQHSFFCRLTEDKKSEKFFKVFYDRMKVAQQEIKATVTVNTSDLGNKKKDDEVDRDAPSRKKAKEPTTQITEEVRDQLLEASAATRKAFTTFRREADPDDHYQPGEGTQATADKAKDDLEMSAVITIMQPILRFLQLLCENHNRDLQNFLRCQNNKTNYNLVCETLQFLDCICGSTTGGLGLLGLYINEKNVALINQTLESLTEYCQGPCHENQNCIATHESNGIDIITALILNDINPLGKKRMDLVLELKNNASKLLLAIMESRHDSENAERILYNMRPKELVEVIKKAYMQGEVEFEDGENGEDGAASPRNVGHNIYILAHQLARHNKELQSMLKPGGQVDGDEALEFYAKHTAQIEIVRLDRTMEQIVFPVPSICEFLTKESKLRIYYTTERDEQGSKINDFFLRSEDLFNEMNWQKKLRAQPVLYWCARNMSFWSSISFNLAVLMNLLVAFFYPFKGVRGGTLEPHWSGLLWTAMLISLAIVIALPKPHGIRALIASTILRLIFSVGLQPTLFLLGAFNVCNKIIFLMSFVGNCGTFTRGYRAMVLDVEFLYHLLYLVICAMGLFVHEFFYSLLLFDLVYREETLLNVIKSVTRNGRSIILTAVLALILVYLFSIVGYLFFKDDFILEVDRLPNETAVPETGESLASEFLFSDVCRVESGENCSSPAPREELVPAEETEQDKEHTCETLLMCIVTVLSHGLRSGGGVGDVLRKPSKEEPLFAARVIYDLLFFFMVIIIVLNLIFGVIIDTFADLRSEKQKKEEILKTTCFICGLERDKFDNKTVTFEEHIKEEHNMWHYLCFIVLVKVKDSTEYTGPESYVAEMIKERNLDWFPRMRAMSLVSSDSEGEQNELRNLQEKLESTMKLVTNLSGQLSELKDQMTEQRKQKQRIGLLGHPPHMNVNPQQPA
UniProt P11881: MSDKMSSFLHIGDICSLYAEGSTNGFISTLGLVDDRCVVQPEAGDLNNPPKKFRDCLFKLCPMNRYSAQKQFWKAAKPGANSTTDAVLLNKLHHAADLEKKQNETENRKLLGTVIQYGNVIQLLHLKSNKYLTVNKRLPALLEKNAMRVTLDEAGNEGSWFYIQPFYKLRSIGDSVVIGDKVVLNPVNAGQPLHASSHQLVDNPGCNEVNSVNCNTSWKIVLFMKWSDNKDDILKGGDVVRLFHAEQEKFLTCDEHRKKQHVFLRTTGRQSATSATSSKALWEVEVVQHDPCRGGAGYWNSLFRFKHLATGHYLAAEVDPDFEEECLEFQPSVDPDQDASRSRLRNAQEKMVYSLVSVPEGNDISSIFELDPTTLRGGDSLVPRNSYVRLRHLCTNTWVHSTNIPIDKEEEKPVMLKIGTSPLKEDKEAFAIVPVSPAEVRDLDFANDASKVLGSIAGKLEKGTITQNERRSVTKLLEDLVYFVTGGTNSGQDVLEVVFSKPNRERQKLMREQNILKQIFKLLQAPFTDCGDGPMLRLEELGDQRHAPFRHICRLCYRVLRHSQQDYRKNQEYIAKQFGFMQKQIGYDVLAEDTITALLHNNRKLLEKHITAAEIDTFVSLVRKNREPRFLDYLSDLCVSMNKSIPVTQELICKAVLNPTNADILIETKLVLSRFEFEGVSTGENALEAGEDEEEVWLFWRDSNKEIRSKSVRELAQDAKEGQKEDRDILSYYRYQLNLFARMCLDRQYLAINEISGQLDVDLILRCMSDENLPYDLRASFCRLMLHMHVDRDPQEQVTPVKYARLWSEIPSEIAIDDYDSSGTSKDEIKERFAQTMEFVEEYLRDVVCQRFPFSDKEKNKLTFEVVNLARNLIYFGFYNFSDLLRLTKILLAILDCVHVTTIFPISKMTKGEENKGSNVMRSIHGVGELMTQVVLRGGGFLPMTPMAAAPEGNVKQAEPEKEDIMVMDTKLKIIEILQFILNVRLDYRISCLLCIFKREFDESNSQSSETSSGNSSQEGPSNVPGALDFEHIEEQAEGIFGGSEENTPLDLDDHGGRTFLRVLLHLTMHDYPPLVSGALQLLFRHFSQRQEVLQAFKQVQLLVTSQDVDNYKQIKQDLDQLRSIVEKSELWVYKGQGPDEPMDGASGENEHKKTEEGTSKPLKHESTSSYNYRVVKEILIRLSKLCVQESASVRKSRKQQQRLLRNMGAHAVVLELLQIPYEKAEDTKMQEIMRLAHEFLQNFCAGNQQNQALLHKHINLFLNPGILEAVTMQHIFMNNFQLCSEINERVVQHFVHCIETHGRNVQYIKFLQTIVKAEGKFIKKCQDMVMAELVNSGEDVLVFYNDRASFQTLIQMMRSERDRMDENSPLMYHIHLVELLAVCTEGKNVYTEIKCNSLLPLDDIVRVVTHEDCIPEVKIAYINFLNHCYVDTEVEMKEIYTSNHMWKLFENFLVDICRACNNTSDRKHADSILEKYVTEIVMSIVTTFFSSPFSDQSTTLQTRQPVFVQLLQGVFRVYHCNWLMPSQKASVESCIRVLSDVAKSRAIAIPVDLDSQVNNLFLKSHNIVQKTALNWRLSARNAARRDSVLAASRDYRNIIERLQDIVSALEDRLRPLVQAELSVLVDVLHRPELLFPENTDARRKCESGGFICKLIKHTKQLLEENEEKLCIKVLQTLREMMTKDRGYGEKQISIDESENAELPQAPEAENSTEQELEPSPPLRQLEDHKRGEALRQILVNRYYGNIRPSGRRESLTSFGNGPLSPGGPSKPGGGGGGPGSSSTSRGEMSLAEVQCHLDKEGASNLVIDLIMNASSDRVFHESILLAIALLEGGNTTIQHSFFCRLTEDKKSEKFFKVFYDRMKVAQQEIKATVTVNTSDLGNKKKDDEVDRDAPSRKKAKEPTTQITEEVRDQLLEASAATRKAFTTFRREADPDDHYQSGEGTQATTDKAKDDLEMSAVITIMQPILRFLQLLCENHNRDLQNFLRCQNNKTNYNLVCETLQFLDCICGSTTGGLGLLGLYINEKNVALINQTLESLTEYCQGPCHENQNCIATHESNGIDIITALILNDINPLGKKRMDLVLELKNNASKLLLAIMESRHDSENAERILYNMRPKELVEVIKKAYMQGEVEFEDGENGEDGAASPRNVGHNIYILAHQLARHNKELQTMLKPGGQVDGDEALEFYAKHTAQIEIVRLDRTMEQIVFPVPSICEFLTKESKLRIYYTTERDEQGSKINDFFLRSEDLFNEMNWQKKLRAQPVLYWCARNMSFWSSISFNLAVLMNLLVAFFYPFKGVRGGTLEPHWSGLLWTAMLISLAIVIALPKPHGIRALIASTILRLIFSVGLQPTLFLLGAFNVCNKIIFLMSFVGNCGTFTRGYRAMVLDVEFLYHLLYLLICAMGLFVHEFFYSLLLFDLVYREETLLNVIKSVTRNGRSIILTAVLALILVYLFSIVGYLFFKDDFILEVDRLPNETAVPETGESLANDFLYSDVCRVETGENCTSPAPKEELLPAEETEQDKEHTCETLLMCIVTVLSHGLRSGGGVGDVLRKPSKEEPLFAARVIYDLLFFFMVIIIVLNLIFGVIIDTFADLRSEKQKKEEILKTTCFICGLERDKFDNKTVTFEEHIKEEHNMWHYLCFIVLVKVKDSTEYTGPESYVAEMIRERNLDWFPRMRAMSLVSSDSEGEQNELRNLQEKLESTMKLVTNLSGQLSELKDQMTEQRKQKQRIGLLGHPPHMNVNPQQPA
UniProt P06240: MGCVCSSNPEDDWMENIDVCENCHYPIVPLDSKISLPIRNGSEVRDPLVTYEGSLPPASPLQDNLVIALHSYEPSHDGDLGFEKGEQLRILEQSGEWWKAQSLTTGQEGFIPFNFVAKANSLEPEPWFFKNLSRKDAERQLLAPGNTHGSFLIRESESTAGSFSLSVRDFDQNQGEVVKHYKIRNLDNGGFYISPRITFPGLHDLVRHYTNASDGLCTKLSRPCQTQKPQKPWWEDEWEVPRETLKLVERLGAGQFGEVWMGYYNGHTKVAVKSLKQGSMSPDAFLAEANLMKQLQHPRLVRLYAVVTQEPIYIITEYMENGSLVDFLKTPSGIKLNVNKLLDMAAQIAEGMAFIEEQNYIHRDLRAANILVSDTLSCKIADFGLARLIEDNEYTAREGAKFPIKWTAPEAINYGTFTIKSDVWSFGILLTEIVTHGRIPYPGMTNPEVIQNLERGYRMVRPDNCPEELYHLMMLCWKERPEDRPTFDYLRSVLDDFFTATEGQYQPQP
UniProt P06239: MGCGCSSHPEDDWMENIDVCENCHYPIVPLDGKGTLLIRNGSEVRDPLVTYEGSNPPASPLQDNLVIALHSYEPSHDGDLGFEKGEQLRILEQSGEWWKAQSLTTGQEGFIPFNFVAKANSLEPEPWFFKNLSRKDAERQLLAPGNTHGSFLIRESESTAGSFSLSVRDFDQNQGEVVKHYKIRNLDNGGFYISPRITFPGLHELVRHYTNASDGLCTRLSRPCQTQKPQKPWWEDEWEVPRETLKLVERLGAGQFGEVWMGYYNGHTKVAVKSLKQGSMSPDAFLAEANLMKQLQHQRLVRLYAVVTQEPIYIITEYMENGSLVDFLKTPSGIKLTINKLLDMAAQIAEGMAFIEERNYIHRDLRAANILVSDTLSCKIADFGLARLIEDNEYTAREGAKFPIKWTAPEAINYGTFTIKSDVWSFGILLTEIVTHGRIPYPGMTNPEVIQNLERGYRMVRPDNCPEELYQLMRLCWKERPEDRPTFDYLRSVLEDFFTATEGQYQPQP

T2: biotin-labelled control peptide
T2 sequence (peptide, biotin (position not stated)): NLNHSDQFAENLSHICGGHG


Key:
[1] = biological target: IP3R-1, endogenous in Jurkat T cells (human (endogenous in Jurkat)) (UniProt Q14643); assay: co-IP; immunoprecipitation with anti-IP3R-1 antibody from cell lysate (1% CHAPS, 50 mM Tris, 100 mM NaCl, 2 mM EDTA), protein G-agarose; western blot for Lck
[2] = biological target: T1, biotin-labelled D5SD peptide (human); assay: pull-down; biotin-labelled peptides immobilised on streptavidin-coated beads, incubated with cell lysates (WEHI7.2, Jurkat) for 18 h at 4°C; western blot for Lck; only the target purified
[3] = biological target: T2, biotin-labelled control peptide; assay: as above
[4] = biological target: IP3R-1, endogenous in WEHI7.2 cells (mouse (endogenous in WEHI7.2)) (UniProt P11881); assay: co-IP; immunoprecipitation with anti-IP3R-1 antibody from cell lysate (1% CHAPS, 50 mM Tris, 100 mM NaCl, 2 mM EDTA), protein G-agarose; western blot for Lck
[5] = biological target: T1, biotin-labelled D5SD peptide (human); assay: pull-down; biotin-labelled peptide immobilised on streptavidin-coated beads, incubated with purified GST-tagged SH2-Lck for 18 h at 4°C; beads washed in TBS (25 mM Tris-HCl, 0.15 M NaCl, pH 7); beads, eluate and flow-through analysed by western blot; both purified
[6] = biological target: Lck, endogenous in WEHI7.2 (murine) cells (mouse (endogenous in WEHI7.2)) (UniProt P06240); assay: co-IP; WEHI7.2 lysate incubated with D5SD peptide for 1 h at 4°C before immunoprecipitation with anti-IP3R-1 antibody; loss of co-precipitated Lck; only the binder purified

binding [2]	binding [3]	Molecule	other results
binds	no binding	Lck, endogenous in Jurkat (human) cells (from UniProt P06239 1-509)	binding [1]: binds
binds	no binding	Lck, endogenous in WEHI7.2 (murine) cells (from UniProt P06240 1-509)	binding [4]: binds
–	–	purified GST-tagged SH2 domain from Lck (from UniProt P06239 127-224) (domain or fragment)	binding [5]: binds
–	–	KKRMDLVLELKNNASKLLLAI [D5SD peptide]	binding [6]: binds
